This note sets out measurements from the BET-seq Pho4 binding data (Le et al. 2018).

The other results are listed elsewhere or left out. These are noisy estimates, calculated here from bound and input reads.

The target of this experiment is T1, Pho4 (S. cerevisiae) (UniProt P07270).
T1 sequence: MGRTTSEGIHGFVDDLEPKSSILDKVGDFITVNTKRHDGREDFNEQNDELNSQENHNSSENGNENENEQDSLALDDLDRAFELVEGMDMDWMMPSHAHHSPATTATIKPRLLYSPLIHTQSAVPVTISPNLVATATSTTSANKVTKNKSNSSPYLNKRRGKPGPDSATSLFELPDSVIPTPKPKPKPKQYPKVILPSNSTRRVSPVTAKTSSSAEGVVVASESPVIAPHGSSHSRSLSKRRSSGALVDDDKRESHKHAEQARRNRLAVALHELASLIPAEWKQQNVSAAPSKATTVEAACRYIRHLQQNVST
In words: relative binding free energy (BET-seq); higher = weaker binding. The note with it: reference: library average.
With TGTCTCACGTGTTGGC, the “relative binding free energy” value came out at 0.29 kcal/mol.
The figure for AAGCTCACGTGGGATG is 0.15 kcal/mol; for ATATGCACGTGTTGGT it is 0.03 kcal/mol; for TGTTACACGTGCTTAT it is 0.06 kcal/mol.
As to CTGGACACGTGAGCGG, the “relative binding free energy” value is 0.31 kcal/mol.
Take TGAGACACGTGGATTG: the “relative binding free energy” value is -0.12 kcal/mol.
The figure for TAAAACACGTGGGGCT is 0.03 kcal/mol; for TTTGGCACGTGAATGA it is 0.25 kcal/mol.
As to TGCGGCACGTGGAGTT, the “relative binding free energy” value was 0.06 kcal/mol.
As to AGCTGCACGTGAGTGA, the “relative binding free energy” value turned out to be 0.24 kcal/mol.
For CGTGTCACGTGTTTAG the value was 0.03 kcal/mol; for AGGTGCACGTGATGAT, 0.13 kcal/mol.
For GGTGTCACGTGGTGCC the value was 0.09 kcal/mol.
As to CATTTCACGTGTCAGG, the “relative binding free energy” value came out at 0.28 kcal/mol.
The figure for AATGTCACGTGGGAGT is 0.09 kcal/mol; for GTAAGCACGTGTATGA it is -0.09 kcal/mol.
For GTTATCACGTGGTTGC the value was 0.21 kcal/mol; for TTGCTCACGTGTGCGT, -0.01 kcal/mol; for TGTTCCACGTGTTGAG, 0.16 kcal/mol.
For GGTTTCACGTGCGTAG the value was 0.24 kcal/mol; for TGTGTCACGTGTGATC, 0.19 kcal/mol.
As to AGAAACACGTGGGTGC, the “relative binding free energy” value stood at 0.04 kcal/mol.
The figure for TGGGTCACGTGGTAAG is 0.19 kcal/mol; for GTATACACGTGCGTGG it is -0.15 kcal/mol; for GGGAGCACGTGTGGTG it is -0.07 kcal/mol.
For AGGGACACGTGGTAGA the value was -0.17 kcal/mol; for TGCTTCACGTGAGTGA, 0.28 kcal/mol; for AGCTGCACGTGGTGTT, -0.12 kcal/mol.
TTGAACACGTGACGGT: the “relative binding free energy” value is 0.11 kcal/mol.
With GTAAGCACGTGTGGCG, the “relative binding free energy” value was determined as 0.11 kcal/mol.
As to TTAGTCACGTGCGAAT, the “relative binding free energy” value worked out at 0.22 kcal/mol.
For TGGGCCACGTGGTGAT the value was -0.08 kcal/mol; for TTGCGCACGTGCAGGG, -0.16 kcal/mol; for TTTGTCACGTGGAAGC, 0.3 kcal/mol.
For GAAGGCACGTGGTATT the value was -0.07 kcal/mol; for TTTGGCACGTGGTGAA, -0.09 kcal/mol; for ATTAACACGTGATGTA, 0.02 kcal/mol.
For TGTTTCACGTGTCTGC the value was 0.23 kcal/mol.
For TTCATCACGTGGCTTT, the “relative binding free energy” value came out at 0.11 kcal/mol.
The figure for AGTCGCACGTGTAGAG is 0.04 kcal/mol; for CAGAGCACGTGTGTTT it is -0.11 kcal/mol.
The figure for GTCAGCACGTGGGTAG is -0.22 kcal/mol; for GTAAGCACGTGTATGT it is 0.03 kcal/mol; for TGTACCACGTGTAGTT it is 0.06 kcal/mol.
For ACGGGCACGTGTGCGG the value was -0.07 kcal/mol.
On to CGTGGCACGTGGTTGT, for which the “relative binding free energy” value is -0.2 kcal/mol.
For the sequence TATTTCACGTGAGCGT, the “relative binding free energy” value was determined as 0.34 kcal/mol.
Consider TGTGGCACGTGTTGGG, for which the “relative binding free energy” value came to 0.03 kcal/mol.
For TGTTTCACGTGCTATA the value was 0.24 kcal/mol; for TTGTACACGTGAGTAG, 0.03 kcal/mol.
Turning to TGAATCACGTGTTATT, the “relative binding free energy” value was 0.05 kcal/mol.
For GAATGCACGTGTGGTG the value was 0.09 kcal/mol; for AGGGGCACGTGCGTGA, -0.24 kcal/mol; for GATTACACGTGCGTGT, 0.03 kcal/mol.
Consider ATGTGCACGTGTGGAG, for which the “relative binding free energy” value is -0.1 kcal/mol.
TAGTTCACGTGTTTTG: the “relative binding free energy” value turned out to be 0.24 kcal/mol.
The figure for ATAGTCACGTGTTTGC is 0.03 kcal/mol; for TCGTGCACGTGCTGGG it is -0.05 kcal/mol; for CCATGCACGTGGGGTA it is -0.11 kcal/mol.
The figure for TTTTACACGTGTAGCA is 0.08 kcal/mol; for TTGATCACGTGTTAAT it is 0.04 kcal/mol.
For AGCTGCACGTGGGGAG the value was -0.1 kcal/mol; for TGTTTCACGTGCGTTA, 0.23 kcal/mol.
TGGCGCACGTGAATTG: the “relative binding free energy” value stood at 0.23 kcal/mol.
For the sequence TGGCGCACGTGGGGAT, the “relative binding free energy” value was -0.22 kcal/mol.
The figure for GATGGCACGTGTTAGC is 0.06 kcal/mol; for GAGGGCACGTGCAGGT it is -0.2 kcal/mol.
The figure for TTTGTCACGTGTTCAG is 0.28 kcal/mol.
As for GTCGGCACGTGACTGG, the “relative binding free energy” value was determined as 0.07 kcal/mol.
The figure for AGGTACACGTGCGGGG is -0.09 kcal/mol; for CCGGTCACGTGGTTTA it is 0.07 kcal/mol.
For the sequence TGGGGCACGTGCAATT, the “relative binding free energy” value was -0.11 kcal/mol.
For GGGCGCACGTGTGGAT the value was -0.01 kcal/mol; for TGGTGCACGTGTGGCG, 0.02 kcal/mol.
For GCTTTCACGTGCGTGT the value was 0.46 kcal/mol.
For TTATTCACGTGTGCGG the value was 0.17 kcal/mol.
AGGAGCACGTGATAGG: the “relative binding free energy” value is -0.09 kcal/mol.
For TCGGTCACGTGCCGGT the value was 0 kcal/mol; for GGGTACACGTGCAGGG, 0.12 kcal/mol; for TATTGCACGTGGTTAA, -0.1 kcal/mol.
For GGAAGCACGTGTTTGG the value was -0.08 kcal/mol.
With AATGACACGTGCGTAT, the “relative binding free energy” value turned out to be 0.1 kcal/mol.
For the sequence GAGATCACGTGATGTT, the “relative binding free energy” value is 0.39 kcal/mol.
The figure for GTGTTCACGTGGTCCT is 0.15 kcal/mol; for GTGTGCACGTGTTCGT it is 0.1 kcal/mol; for AGGGGCACGTGTAGGG it is -0.06 kcal/mol.
The figure for TTGAGCACGTGGATAG is 0 kcal/mol; for GTCTACACGTGTTTGG it is 0.24 kcal/mol; for AGTTTCACGTGTATCA it is 0.35 kcal/mol.
As for GTCTGCACGTGAAGTG, the “relative binding free energy” value is 0.21 kcal/mol.
For the sequence TTGTTCACGTGGAAAT, the “relative binding free energy” value turned out to be 0.49 kcal/mol.
In the case of TATTACACGTGAGGAT, the “relative binding free energy” value was found to be 0.16 kcal/mol.
The figure for CTTTGCACGTGAGAGG is 0.21 kcal/mol; for GAGGTCACGTGGATGA it is 0.18 kcal/mol.
For ACGGGCACGTGGTCGT, the “relative binding free energy” value was -0.22 kcal/mol.
With ATATCCACGTGGGTAT, the “relative binding free energy” value was 0.01 kcal/mol.
Take GTTAGCACGTGACGAG: the “relative binding free energy” value was 0.22 kcal/mol.
The figure for AGGTGCACGTGGCTGC is -0.27 kcal/mol.
The figure for CTTAGCACGTGAGGTG is 0.16 kcal/mol; for CTAGGCACGTGAGCTG it is 0.17 kcal/mol; for TTGTACACGTGTCTGG it is 0.14 kcal/mol.
For AGTGTCACGTGGATTT the value was 0.04 kcal/mol; for AACTTCACGTGATGTT, 0.33 kcal/mol; for TATTACACGTGAGGAA, 0.39 kcal/mol.
AGTGACACGTGGTATC: the “relative binding free energy” value was 0 kcal/mol.
Consider CGGGACACGTGTTGTA, for which the “relative binding free energy” value is 0.04 kcal/mol.
For GTAGTCACGTGTGGAT, the “relative binding free energy” value turned out to be 0.16 kcal/mol.
For the sequence GGGTGCACGTGTGCAG, the “relative binding free energy” value worked out at 0 kcal/mol.
On to TGTCCCACGTGGGGAT, for which the “relative binding free energy” value was -0.05 kcal/mol.
Turning to ATGCTCACGTGGTGCG, the “relative binding free energy” value is 0.05 kcal/mol.
Take GGTGACACGTGATTTG: the “relative binding free energy” value was determined as 0.2 kcal/mol.
For CTGGTCACGTGGTGTC, the “relative binding free energy” value stood at 0.07 kcal/mol.
The figure for CTTGGCACGTGTGCTA is -0.14 kcal/mol; for GTTGTCACGTGTAGGT it is 0.17 kcal/mol.
The figure for AGGTGCACGTGGTGGT is 0 kcal/mol.
